In all, about 52,000 compounds went through this assay and about 1,700 (3.3%) were called active. No stated cut-off is given here; in the data, active means survival mostly below about 52% (no sharp cut-off); inactive means mostly above about 56%. This is one part of the list.

The experiment relates to Wild type. As to the kind of experiment: growth inhibition of S. aureus wild type versus tarO mutant, primary screen, teichoic acid synthesis inhibitors, RN4220, OD600 (AID 463173). To be noted: S. aureus RN4220 wild type/DeltatarO growth, OD600, 18 h, hits give low values, screened at 18.75 µg/mL (by protocol).
With `O=C1N/C(=N/N=C\c2ccco2)SC1Cc1cccc(C(F)(F)F)c1` (configuration not stated), the survival was inactive: 114%. Under `COc1ccc(/C=C\C(=O)NC2CC(=O)N(c3ccc(F)cc3)C2)cc1OC` (configuration not stated) stands inactive: 68%; under `COc1cccc(-n2c(SCC(=O)Nc3cccc(Cl)c3)nc3c(oc4ccccc43)c2=O)c1`, inactive: 71%; under `Cc1c(NC(=O)CC(C)C)cccc1-c1nc2cccnc2s1`, inactive: 109%. Under `O=C(CSc1cn(CCNC(=O)c2ccccc2F)c2ccccc12)Nc1ccccc1F` stands inactive: 60%.

As to `CS(=O)(=O)c1oc(-c2ccc(F)cc2)nc1S(=O)(=O)c1ccc(Cl)cc1`, the survival was active: -1%. As to `O=C(CSc1nc2c(sc3ccccc32)c(=O)n1CCCC(=O)NC1CCCC1)Nc1ccc(F)cc1`, the survival was inactive: 90%. On to `CCOc1ccccc1CNC(=O)c1ccc(-c2nc(CSc3ccc(C)cc3)c(C)o2)cc1`, for which the survival was inactive: 71%. Under `COc1ccc(-n2c(=O)c3c(C)c(C)sc3n(CC(=O)NCc3ccc(C)cc3)c2=O)c(OC)c1` stands inactive: 98%. For `O=C(NCc1ccc(F)cc1)C1CCCN(c2ncnc3onc(-c4ccc(F)cc4)c23)C1` (configuration not stated), the survival was inactive: 136%.

For the compound `CCOC(=O)CNC(=O)c1ccc(-c2nn(C)c(=O)c3ccccc23)cc1`, the survival was inactive: 67%. The same measure for `COc1ccc(Cl)cc1NC(=O)CSC1=Nc2ccccc2C2=NC(CC(=O)NC3CCCCC3)C(=O)N12` (configuration not stated): inactive: 82%; for `Cc1ccc(Nc2c(-c3ccsc3)nc3cccc(C)n23)cc1`: inactive: 19%; for `CCOC(=O)c1ccc2nsnc2c1`: inactive: 94%. Under `CCc1ccc(NCc2cc3ccc(OC)cc3n(CC(=O)Nc3ccc(C(C)C)cc3)c2=O)cc1` stands inactive: 79%; under `Cc1ccc(NC(=O)c2ccc3oc(=O)c(S(=O)(=O)c4ccccc4)cc3c2)cc1C`, inactive: 72%. The same measure for `CC(NC(=O)C1CCN(C(=O)c2ccc(-n3ccc4ccccc43)s2)CC1)c1ccccc1` (configuration not stated): inactive: 55%; for `CC(SCc1ccccc1)C(=O)NCc1ccccn1` (configuration not stated): inactive: 108%; for `COc1ccccc1NC(=O)C1=C(C)Nc2nc(SCc3ccc(Cl)cc3)nn2C1c1ccccc1Cl` (configuration not stated): inactive: 90%. Turning to `Cc1ccc(NC(=O)Cn2nnc(-c3nc(-c4ccncc4)no3)c2N)c(C)c1`, the survival was inactive: 69%. In the case of `CC1CCN(C(=O)c2cc3c(=O)n(C)c4ccccc4c3s2)CC1`, the survival was inactive: 83%. In the case of `CCOC(=O)C1CCN(C(=O)CN2c3ccc(C(C)C)cc3-c3ccccc3S2(=O)=O)CC1`, the survival is inactive: 111%.

As for `CCOc1ccc(OC(=O)c2cn(-c3cccc(OC)c3)c(=O)c3ccccc23)cc1`, the survival was inactive: 64%.

On to `CCOC(=O)c1c(NC(C)=O)c2c3c(sc2n1Cc1ccc(Cl)cc1)CCCC3`, for which the survival was inactive: 85%.

As for `COc1cc(C2NC(=O)N(C)C3=C2C(=O)N(c2cccc(Cl)c2)C3)ccc1O` (configuration not stated), the survival was inactive: 75%. As for `O=C(O)c1ccc(NC(=O)C2C3C=CC(C3)C2C(=O)O)cc1` (configuration not stated), the survival was inactive: 116%. The same measure for `CC(=O)c1cccc(NC(=O)C2=CC(c3ccc4c(c3)OCO4)=NS(=O)(=O)N2C)c1`: inactive: 77%; for `Cc1ccc(CNC(=O)c2ccc(CSCc3ccccc3Cl)o2)cc1`: inactive: 49%. Under `Fc1ccccc1-n1ncc2c1ncn1nc(-c3ccccc3Cl)nc21` stands inactive: 84%; under `Cc1cccc(CNC(=O)C(=O)Nc2ccccc2C)c1`, inactive: 78%; under `CC1CCCCN1CCCNC(=O)c1[nH]c2ccccc2c1Sc1ccc(Cl)cc1` (configuration not stated), active: -1%. The same measure for `COc1ccccc1CNC(=O)CCC1N=C2c3ccccc3N=C(SCC(N)=O)N2C1=O` (configuration not stated): inactive: 87%; for `CC(=O)N1CCc2cc(CNC(=O)Nc3cc(Cl)ccc3C)ccc21`: inactive: 88%.

Regarding `COc1ccc(Cn2c(CCC(=O)Nc3cccc(OC)c3)nc3cccnc32)cc1`, the survival is inactive: 85%. Under `CCc1ccc(CNC(=O)C2CCN(c3nc4ccccc4nc3C(F)(F)F)CC2)cc1` stands inactive: 88%; under `Cc1ccc(S(=O)(=O)NCC(c2ccc(N(C)C)cc2)N2CCc3ccccc32)cc1C` (configuration not stated), inactive: 129%; under `Cc1cccc(C)c1NC(=O)CSc1nc2ncccc2o1`, inactive: 63%. The same measure for `CCN1C(=O)c2ccccc2Sc2ccc(NC(=O)Nc3ccccc3OC)cc21`: inactive: 55%; for `Cc1ccc(NC(=O)c2c(NC(=O)Cc3ccccc3)sc3c2CCC3)cc1`: inactive: 38%. Under `COC(=O)Cc1c(C)c2cc3c(c(C)c2oc1=O)OCN(CCc1ccccc1F)C3` stands inactive: 87%; under `CN(C)c1ccc(-c2nc3cnccn3c2Nc2cccc(C(F)(F)F)c2)cc1`, inactive: 84%. `COc1cccc(CNc2nccn(-c3cc(C)cc(C)c3)c2=O)c1`: the survival was inactive: 63%. For `COc1ccc(NC(=O)Cn2c(=O)n(Cc3ccco3)c(=O)c3cc(OC)c(OC)cc32)cc1`, the survival was inactive: 99%. Regarding `COc1ccc2cc(-c3nc(Cl)c4c5c(sc4n3)CCCC5)c(=O)oc2c1`, the survival was inactive: 60%. Under `C=CCc1c(NCCO)nc(C)[nH]c1=O` stands inactive: 102%; under `Cc1ccc(-n2ncc(C(=O)NCCN3CCOCC3)c2C2CCN(C(=O)OC(C)(C)C)CC2)c(C)c1`, inactive: 32%. The same measure for `CCCCN(CCCNC(=O)c1ccc(Sc2ccc(Cl)cc2)c(NC(C)=O)c1)c1ccccc1`: inactive: 68%; for `Cc1ccc(NC(=O)CSC2=Nc3ccccc3C3=NC(Cc4ccccc4)C(=O)N23)cc1C` (configuration not stated): inactive: 83%; for `Cc1cc2c(cc1S(=O)(=O)CCC(=O)N1CCCC(C)C1)OCC(=O)N2` (configuration not stated): inactive: 89%. The same measure for `Clc1ccc2nc(NCc3ccccc3)c3nncn3c2c1`: inactive: 83%; for `Cc1c(Cl)cccc1NC(=O)Cn1cc(C(=O)C2CCCCC2)c2ccccc21`: inactive: 74%; for `CCSc1ncc(Cl)c(C(=O)Nc2ccc(S(=O)(=O)N3CCC(C)CC3)cc2)n1`: inactive: 93%. On to `COCCn1c(CCC(=O)Nc2ccc(C)c(Cl)c2)nc2cccnc21`, for which the survival was inactive: 84%.

Regarding `CC(C)(C)OC(=O)N1CCC(c2c(C(=O)NCc3ccccc3)cnn2-c2ccccc2)CC1`, the survival was inactive: 73%. The same measure for `CCCCn1c(=N)c(S(=O)(=O)c2ccc(Cl)cc2)cc2c(=O)n3cccc(C)c3nc21`: inactive: 67%. As to `O=C(CC1CCCCC1)Nc1cccnc1`, the survival is inactive: 96%. The same measure for `CC1CCC(NC(=O)c2ccc3c(c2)N(Cc2ccccc2)C(=O)c2ccccc2S3(=O)=O)CC1` (configuration not stated): inactive: 137%.

The values above are taken from PubChem BioAssay AID463173 (ICCB-Longwood Screening Facility, Harvard Medical School, 2010).
